The whole screen tested about 310,000 compounds, of which about 14,000 (4.5%) showed an effect of 50% or more. The effect is printed as a negative number. The list shows a part of the results. Where a SMILES comes first, the peptide text is derived from it. The star is where a group is joined. Boc = CC(C)(C)OC(=O)*
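Further: peak tail current of the secondary pulse compared with the same well before compound.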

The target in this experiment is human ether-à-go-go-related gene (hERG) potassium channel (human, UniProt Q12809). Description: primary screen, population patch clamp on CHO cells stably expressing hERG.
human ether-à-go-go-related gene (hERG) potassium channel, sequence (Q12809 whole entry, looked up): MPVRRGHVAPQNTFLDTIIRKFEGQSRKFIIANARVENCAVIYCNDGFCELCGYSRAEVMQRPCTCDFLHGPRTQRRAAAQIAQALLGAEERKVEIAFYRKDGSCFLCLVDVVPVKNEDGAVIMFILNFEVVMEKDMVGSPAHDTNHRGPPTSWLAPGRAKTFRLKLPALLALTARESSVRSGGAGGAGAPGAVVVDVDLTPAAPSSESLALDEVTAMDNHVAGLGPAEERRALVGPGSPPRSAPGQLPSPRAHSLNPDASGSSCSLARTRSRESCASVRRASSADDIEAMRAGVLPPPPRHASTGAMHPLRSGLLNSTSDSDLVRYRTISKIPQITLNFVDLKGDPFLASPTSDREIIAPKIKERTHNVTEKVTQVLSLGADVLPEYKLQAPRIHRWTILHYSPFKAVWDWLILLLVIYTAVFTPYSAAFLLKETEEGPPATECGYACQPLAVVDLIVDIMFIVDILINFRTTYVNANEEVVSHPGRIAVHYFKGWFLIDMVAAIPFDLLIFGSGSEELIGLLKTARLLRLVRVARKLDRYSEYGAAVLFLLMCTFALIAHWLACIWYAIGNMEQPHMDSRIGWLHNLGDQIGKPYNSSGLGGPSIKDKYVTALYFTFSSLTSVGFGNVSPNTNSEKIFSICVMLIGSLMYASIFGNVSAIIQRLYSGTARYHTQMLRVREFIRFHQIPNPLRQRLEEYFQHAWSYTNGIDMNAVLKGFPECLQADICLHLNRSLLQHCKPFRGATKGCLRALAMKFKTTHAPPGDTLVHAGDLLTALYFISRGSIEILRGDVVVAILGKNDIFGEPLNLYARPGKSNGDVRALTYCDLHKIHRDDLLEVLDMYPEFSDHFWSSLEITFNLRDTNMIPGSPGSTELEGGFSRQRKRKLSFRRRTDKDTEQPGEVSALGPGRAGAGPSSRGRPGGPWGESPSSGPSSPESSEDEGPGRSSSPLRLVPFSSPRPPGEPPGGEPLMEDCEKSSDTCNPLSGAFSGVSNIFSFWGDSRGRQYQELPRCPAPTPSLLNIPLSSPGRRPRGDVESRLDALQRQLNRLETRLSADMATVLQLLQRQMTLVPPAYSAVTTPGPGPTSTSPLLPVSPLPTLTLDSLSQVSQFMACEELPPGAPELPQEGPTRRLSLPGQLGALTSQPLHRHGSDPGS
On to `CCCc1cc(C(=O)Nc2cc(C)on2)no1`, for which the “hERG current change (%, negative = inhibition) at 10uM” value is on record as 12.8%.

`CCCC(=O)Nc1ccc(C(=O)NNC(=O)c2cccc([N+](=O)[O-])c2)cc1`: the “hERG current change (%, negative = inhibition) at 10uM” value worked out at 14.5%.

With `COc1ccc(OC)c(-c2cc(C(=O)NC3CCCC3)c3ccccc3n2)c1`, the “hERG current change (%, negative = inhibition) at 10uM” value is -46.1%. With `Cc1cc(C(=O)NC2Cc3ccccc3C2)c(C)o1`, the “hERG current change (%, negative = inhibition) at 10uM” value was determined as 10.9%. For `CCOC(=O)c1ccc(NS(=O)(=O)c2ccc(-c3coc(C)n3)cc2)cc1` the value was 24.2%. `CC(Cl)C(=O)NNc1cccc(Cl)n1` (stereo not drawn): the “hERG current change (%, negative = inhibition) at 10uM” value was 21.8%.

For `Cc1cccc(C)c1OCc1cc(C(=O)N2CCN(Cc3nccn3C)CC2)no1`, the “hERG current change (%, negative = inhibition) at 10uM” value is -44.1%.

Take `COc1cccc2c(=O)n(CC(=O)Nc3ccc(F)cc3)ccc12`: the “hERG current change (%, negative = inhibition) at 10uM” value turned out to be 12.9%. In the case of `S=c1nc(-c2ccccc2)[nH]c2ccc(Br)cc12`, the “hERG current change (%, negative = inhibition) at 10uM” value worked out at 9.58%. The figure for `CC1CN(C(=O)COC(=O)c2ccc(NC(=O)CC#N)cc2)CC(C)O1` (stereo not drawn) is 11%; for `OCC(CO)(CO)N=Cc1cc(Br)ccc1O` it is 4.89%. Turning to `CN1CCN(CC#CCC(O)(c2ccccc2)C2CCCC2)CC1.Cl` (stereo not drawn), the “hERG current change (%, negative = inhibition) at 10uM” value is recorded as -14.8%. For `COc1ccc(CN2CC(C(=O)NC3CCCCC3)CC2=O)cc1` (stereo not drawn) the value was 7.3%; for `Cn1cccc1/C=N/NC(=O)c1cc2ccccc2cc1O`, 0.187%; for `CCOc1ccc(-n2c(C)cc(/C=C3/C(=N)N4C(=NC3=O)SN=C4S(C)(=O)=O)c2C)cc1`, -53.4%. As for `O=C1c2ccccc2C(=O)N1CCCP(=O)(O)CCc1ccccc1`, the “hERG current change (%, negative = inhibition) at 10uM” value was 28.9%. The figure for `Cc1cc(C)cc(N2C(=O)C3C4C=CC(C4)C3C2=O)c1` (stereo not drawn) is 4.28%. The figure for `COc1cc(C)cc2oc(=O)c(CC(=O)N3CCN(C(=O)C4COc5ccccc5O4)CC3)c(C)c12` (stereo not drawn) is -53.9%; for `COc1ccccc1C(=O)N1C(CC(=O)Nc2cc(Cl)ccc2C)C(=O)NC2CCCCC21` (stereo not drawn) it is 5.59%.

For the compound `Cc1c(C(=O)c2ccccc2)c2ccccn2c1CCC#N`, the “hERG current change (%, negative = inhibition) at 10uM” value is -39.8%. For `CCOc1ccc(S(=O)(=O)NCCC(=O)NCc2ccc(OC)c(OC)c2)cc1` the value was -12.9%; for `CSc1ccc(CNC(=O)CCn2ccc3cc(S(=O)(=O)N4CCCC4)ccc32)cc1`, -31.7%. With `COC(=O)CCc1c(C)c(C(=O)c2ccco2)c2ccccn12`, the “hERG current change (%, negative = inhibition) at 10uM” value was -7.35%.

For the compound `CCOC(=O)c1c(C)[nH]c(C)c1C(=O)CSc1nnc(-c2cc(OC)c(OC)c(OC)c2)o1`, the “hERG current change (%, negative = inhibition) at 10uM” value is reported as 14.4%. Take `C/C=C/C(=O)OCC(=O)Nc1cccc(S(=O)(=O)NC2=NCCCCC2)c1`: the “hERG current change (%, negative = inhibition) at 10uM” value is -2.31%. The figure for `Cc1ccc(S(=O)(=O)NN2C(=O)c3ccccc3NC2c2cccc(O)c2)cc1` (stereo not drawn) is -7.34%. For `CCCCNC(=O)NNC(=O)c1ccco1` the value was -2.05%.

For `Cc1cccc(C(=O)Nc2ccc(C(=O)Nc3ccc(O)cc3)cc2)c1`, the “hERG current change (%, negative = inhibition) at 10uM” value is 12.5%. For `COc1ccc(C(=O)N/C(=C\c2cn(C)c3ccccc23)C(=O)NCCCn2ccnc2)cc1OC` the value was 13.2%; for `CCOC(=O)NC(=O)c1cn(C(CC)CO)c(=O)[nH]c1=O` (stereo not drawn), 24.8%; for `CCOc1ccc(Oc2nc(NCC(C)C)nc(OC)n2)nn1`, 7.06%. For `O=C(C1CCOCC1)N1CCCC(N2CCN(c3ccc(F)cc3)CC2)C1` (stereo not drawn), the “hERG current change (%, negative = inhibition) at 10uM” value was -3.64%. The figure for `[N-]=[N+]=NC[C@H](c1ccccc1)N1CCN(Cc2ccccc2)CCC1=O` is -0.754%; for `COc1ccc2[nH]c(=O)c(CN(CCO)C(=O)NCc3ccccc3)cc2c1` it is -5.1%; for `COc1cc(C(=O)NCCNc2nc3ccc(C)cc3cc2C#N)cc(OC)c1OC` it is -4.74%. Turning to `CCCn1nnnc1NCc1ccccc1OCc1cccs1`, the “hERG current change (%, negative = inhibition) at 10uM” value was -16.3%.

On to `CCCn1c(N)c(C(=O)CSc2nc(C)cs2)c(=O)n(C)c1=O`, for which the “hERG current change (%, negative = inhibition) at 10uM” value is recorded as -9.91%.

With `Cc1cc2nc(C3CCN(C(=S)NCC(C)C)CC3)[nH]c2cc1C.O=C(O)C(=O)O`, the “hERG current change (%, negative = inhibition) at 10uM” value was -20.4%. The figure for `CCN(CC)N=Nc1[nH]nc2nc(C)cc(C)c12` is 15.6%; for `CCOC(=O)c1cc(C(=O)NC(C)c2ccccc2)c(=O)[nH]c1C` (stereo not drawn) it is 16.8%; for `CCOc1ccc(C2=CSC3=NCCN23)cc1` it is -4.08%.

For `CC(C)CCn1c(N2CCN(c3cccc(Cl)c3)CC2)nc2c1c(=O)[nH]c(=O)n2C`, the “hERG current change (%, negative = inhibition) at 10uM” value was -34.8%. For `COc1ccc(-c2ccc([C@H]3[C@H]4C=CC[C@@H](C)[C@@H]4C(=O)N3Cc3ccccc3)c(F)c2)cc1` the value was 9.16%; for `COc1ccccc1-c1ccc(SCC(=O)NC2CCCCC2)nn1`, -72%. The figure for `CCOC(=O)Cn1ncc(-c2ccccc2)c1N` is 0.943%.

Regarding `CCCNS(=O)(=O)c1ccc(OCC(=O)Nc2ccccc2F)cc1`, the “hERG current change (%, negative = inhibition) at 10uM” value was -43%. The figure for `CCOC(=O)c1c(C)[nH]c(C(=O)OC/C(O)=C(\C#N)c2nc3ccccc3[nH]2)c1C` is -2.01%. The figure for `C=CCn1c(COc2ccc(Cl)cc2)nnc1SCC(=O)NCC(=O)OCC` is -31.4%; for `CCOC(=O)c1c(-c2ccc(F)cc2)csc1NC(=O)C1CC=CCC1C(=O)O` (stereo not drawn) it is -22.3%; for `CCOc1ccc(N2CC(C(=O)NCc3ccccc3)CC2=O)cc1` (stereo not drawn) it is -12.3%.

On to `CC(=O)Nc1ccc(S(=O)(=O)Oc2cccc(/C=C3\SC(N)=NC3=O)c2)cc1`, for which the “hERG current change (%, negative = inhibition) at 10uM” value is reported as 11.7%. The figure for `Cc1cccc(-n2c(C)cc(C(=O)NC3CCCCC3)c2C)c1` is -32.7%; for `C/C(=N/NS(=O)(=O)c1ccc(F)cc1)c1ccc(NC(=O)c2ccc(C)o2)cc1` it is 1.86%. For `O=C(c1cc(NC(=O)C23CC4CC(CC(C4)C2)C3)cc(NC(=O)C23CC4CC(CC(C4)C2)C3)c1)N1CCCCC1`, the “hERG current change (%, negative = inhibition) at 10uM” value is recorded as 15.8%.

Take `CCOC(=O)CC1COCCN1C(=O)c1ccc2oc(Cc3ccccc3)nc2c1` (stereo not drawn): the “hERG current change (%, negative = inhibition) at 10uM” value worked out at 1.91%.

Regarding `CCOC(=O)CCC(=O)Nc1ccc(S(=O)(=O)N2CCC(C)CC2)cc1`, the “hERG current change (%, negative = inhibition) at 10uM” value is -6.28%. Take `CC1=CCC(C(=O)O)C(C(=O)Nc2ccc(-c3nc4ccc(C)cc4s3)cc2)C1` (stereo not drawn): the “hERG current change (%, negative = inhibition) at 10uM” value came out at 7.8%. For `O=C(CN(C(=O)CCC(=O)Nc1nccs1)c1ccc(F)cc1)NCCc1ccccc1` the value was 25%. For `CCCN1C(=O)/C(=C2\SC(=S)N(c3c(C)n(C)n(-c4ccccc4)c3=O)C2=O)c2ccccc21` the value was 9.17%. For `COCCNC(=O)c1ccc(C)c(S(=O)(=O)Nc2ccc(C)cc2)c1` the value was 9.68%; for `S=C(N/N=C/c1ccco1)NC1CC2CCC1C2` (stereo not drawn), -27.3%. Turning to `Cc1ccc(NC(=O)CSCC(=O)NNC(=O)c2ccoc2C)cc1`, the “hERG current change (%, negative = inhibition) at 10uM” value is reported as -8.6%. For `CCCCNC(=O)CCNC(=O)c1ccc(C(C)(C)C)cc1` the value was -6.39%; for `O=C(CN1CCN(Cc2ccccc2)CC1)Nc1cccc(C(F)(F)F)c1`, -71.6%. The figure for `CCNc1nc(SC(C)C(=O)OC)nc(N(C)C)n1` (stereo not drawn) is 12.6%; for `O=C(Cc1ccccc1)NNC(=O)c1ccccc1C(=O)O` it is -5.66%; for `O=C(NCc1cccnc1)c1cccc(S(=O)(=O)NCc2ccccc2)c1` it is -35.2%. For `CCOC(=O)Cn1nc(C)c(NC(=O)COc2ccc([N+](=O)[O-])cc2)c1C` the value was -40.6%; for `COc1ccc2cc(C(=O)C3CCCN(C(=O)CSc4nnc(C)o4)C3)ccc2c1` (stereo not drawn), -17.2%. `BrCCOCCOc1ccc2ccccc2c1`: the “hERG current change (%, negative = inhibition) at 10uM” value was 14.4%. For `O=C(O)Cc1n[nH]c(=O)c2ccccc12` the value was 16.1%; for `CCOC(=O)c1sc(NC(=O)CSc2nnnn2-c2ccccc2)nc1C`, -8.25%. Turning to `COc1ccc(/C=C/C(=O)Nc2cccc(C(C)=O)c2)cc1`, the “hERG current change (%, negative = inhibition) at 10uM” value is reported as -11.5%. The figure for `CCOc1ccccc1N1C(=O)c2cccnc2C1=O` is 19.5%.

With `NS(=O)(=O)c1ccc(CNc2nc(-c3cccnc3)nc3ccccc23)cc1`, the “hERG current change (%, negative = inhibition) at 10uM” value amounted to 14.4%. The figure for `COc1cccc2cc(C(=O)C3=C(O)C(=O)N(CCN4CCOCC4)C3c3cccs3)oc12` (stereo not drawn) is 13.1%; for `COc1ccc(CN2C(=O)c3cccnc3C2=O)cc1S(=O)(=O)NC1CCCCC1C` (stereo not drawn) it is 10.8%. The figure for `Cn1c(=O)[nH]c(=O)c2c1nc(N1CCCCCC1)n2CC(N)=O` is 15.2%; for `O=C(COC(=O)Cc1ccccc1)NNC(=O)c1ccc([N+](=O)[O-])cc1` it is -12.6%. As for `COc1cc(/C=N/NC(=O)Nc2ccccc2)ccc1OCCOc1ccccc1C`, the “hERG current change (%, negative = inhibition) at 10uM” value is reported as 7.75%. With `O=C(COC(=O)/C=C/c1cccc(F)c1)Nc1ccccc1-c1ccccc1`, the “hERG current change (%, negative = inhibition) at 10uM” value turned out to be 8.48%. The figure for `COc1ccc(-n2cnc3ccccc3c2=O)c([N+](=O)[O-])c1` is 10.1%. The figure for `CC(C)OC(=O)CSc1nc2cccnc2n1C1CCCCC1` is -3.79%; for `CCCCOc1nc2ccccc2nc1NS(=O)(=O)c1ccc(F)cc1` it is -5.01%. For `CCC(C)C(NC(=O)OC(C)(C)C)C(=O)NC(Cc1ccccc1)C(=O)OC` (stereo not drawn) (Boc-Ile-Phe-OMe; configuration not given here) the value was -6.13%; for `CCCCNC(=O)C1COc2ccccc2O1` (stereo not drawn), 6.72%; for `Cc1ccc(C(=O)N2NC(c3ccccc3F)C3C(=O)N(c4cccc(C)c4)C(=O)C32)cc1` (stereo not drawn), 1.87%.
